# Laboratory results published in the supplement of paper PMC8728848.
# The list shows a part of the results.
# B1: LSectin (Mus musculus), Q8BNX1 (protein)
# chain: MNTGEYNKLGSAIEEVSRGQLGRWECYKQRLFFLVLALLVATVLWALILSTLLSSASSKLRVLLSHQDLLRTNASEQKMTLSSLKDDIGACRNCCSVTKAQLQTTLAEFKDIQAKLMEQESILKELQERVTQDLAKASRDRENIRSELFQALEAVKRQNSSCEQCPPSWLPFQGSCYYFSETQATWDTAQSYCGGQGAHLVIVRGLNEQGFLSQHTRGRGYWLGLRAVRHLNKIQGYRWVDGASLNFSHWNSGEPNDSRGHEDCIMMLHSGLWNDAPCTNERDGWICEKRSSCY
# Columns and labels:
# Experiment in all cases: glycan array binding signal (z-score within array); higher = stronger binding
# Settings in all cases: glycan notation: IUPAC condensed, linker removed
# [1] = target: Fuc(a1-2)[Gal(a1-3)]Gal
# How it was run: (§1)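 Negative Z-scores can be read as non-binding. The Z-score is calculated within each array and then averaged across arrays of one protein sequence at different concentrations or buffers and across linkers. Arrays, 3228 in all, were curated from the Consortium for Functional Glycomics database and kept only where the protein sequence was available.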
# [2] = target: Fuc(a1-2)[Gal(a1-3)]Gal(b1-3)GlcNAc
# How it was run: as §1
# [3] = target: Fuc(a1-2)[Gal(a1-3)]Gal(b1-3)GlcNAc(b1-2)Man(a1-3)[Fuc(a1-2)[Gal(a1-3)]Gal(b1-3)GlcNAc(b1-2)Man(a1-6)]Man(b1-4)GlcNAc(b1-4)GlcNAc
# How it was run: as §1
# [4] = target: Fuc(a1-2)[Gal(a1-3)]Gal(b1-3)GlcNAc(b1-3)GalNAc
# How it was run: as §1
# [5] = target: Fuc(a1-2)[Gal(a1-3)]Gal(b1-4)Glc
# How it was run: as §1
# [6] = target: Fuc(a1-2)[Gal(a1-3)]Gal(b1-4)GlcNAc
# How it was run: as §1
# [7] = target: Fuc(a1-2)[Gal(a1-3)]Gal(b1-4)GlcNAc(b1-2)Man(a1-3)[Fuc(a1-2)[Gal(a1-3)]Gal(b1-4)GlcNAc(b1-2)Man(a1-6)]Man(b1-4)GlcNAc(b1-4)GlcNAc
# How it was run: as §1
# [8] = target: Fuc(a1-2)[Gal(a1-3)]Gal(b1-4)GlcNAc(b1-2)Man(a1-3)[Fuc(a1-2)[Gal(a1-3)]Gal(b1-4)GlcNAc(b1-2)Man(a1-6)]Man(b1-4)GlcNAc(b1-4)[Fuc(a1-6)]GlcNAc
# How it was run: as §1
# [9] = target: Fuc(a1-2)[Gal(a1-3)]Gal(b1-4)GlcNAc(b1-3)GalNAc
# How it was run: as §1
# [10] = target: Fuc(a1-2)[Gal(a1-3)]Gal(b1-4)[Fuc(a1-3)]Glc
# How it was run: as §1
# [11] = target: Fuc(a1-2)[Gal(a1-3)]Gal(b1-4)[Fuc(a1-3)]GlcNAc
# How it was run: as §1
# [12] = target: Fuc(a1-2)[Gal(a1-3)]Gal(b1-4)[Fuc(a1-3)]GlcNAc(b1-3)GalNAc
# How it was run: as §1
# [13] = target: Fuc(a1-2)[Gal(a1-4)]Gal(b1-4)GlcNAc
# How it was run: as §1
# [14] = target: Fuc(a1-2)[GalNAc(a1-3)]Gal
# How it was run: as §1
# [15] = target: Fuc(a1-2)[GalNAc(a1-3)]Gal(b1-3)GalNAc(a1-3)[Fuc(a1-2)]Gal(b1-4)GlcNAc
# How it was run: as §1
# [16] = target: Fuc(a1-2)[GalNAc(a1-3)]Gal(b1-3)GlcNAc
# How it was run: as §1
# [17] = target: Fuc(a1-2)[GalNAc(a1-3)]Gal(b1-3)GlcNAc(b1-2)Man(a1-3)[Fuc(a1-2)[GalNAc(a1-3)]Gal(b1-3)GlcNAc(b1-2)Man(a1-6)]Man(b1-4)GlcNAc(b1-4)GlcNAc
# How it was run: as §1
# [18] = target: Fuc(a1-2)[GalNAc(a1-3)]Gal(b1-3)GlcNAc(b1-3)GalNAc
# How it was run: as §1
# [19] = target: Fuc(a1-2)[GalNAc(a1-3)]Gal(b1-4)Glc
# How it was run: as §1
# [20] = target: Fuc(a1-2)[GalNAc(a1-3)]Gal(b1-4)GlcNAc
# How it was run: as §1
# [21] = target: Fuc(a1-2)[GalNAc(a1-3)]Gal(b1-4)GlcNAc(b1-2)Man(a1-3)[Fuc(a1-2)[GalNAc(a1-3)]Gal(b1-4)GlcNAc(b1-2)Man(a1-6)]Man(b1-4)GlcNAc(b1-4)GlcNAc
# How it was run: as §1
# [22] = target: Fuc(a1-2)[GalNAc(a1-3)]Gal(b1-4)GlcNAc(b1-3)Gal(b1-4)GlcNAc
# How it was run: as §1
# [23] = target: Fuc(a1-2)[GalNAc(a1-3)]Gal(b1-4)GlcNAc(b1-3)Gal(b1-4)GlcNAc(b1-3)Gal(b1-4)GlcNAc
# How it was run: as §1
# [24] = target: Fuc(a1-2)[GalNAc(a1-3)]Gal(b1-4)GlcNAc(b1-3)GalNAc
# How it was run: as §1
# [25] = target: Fuc(a1-2)[GalNAc(a1-3)]Gal(b1-4)[Fuc(a1-3)]GlcNAc
# How it was run: as §1
# [26] = target: Fuc(a1-2)[GalNAc(a1-3)]Gal(b1-4)[Fuc(a1-3)]GlcNAc(b1-3)GalNAc
# How it was run: as §1
# [27] = target: Fuc(a1-2)[GalNAc(a1-4)]Gal(b1-4)GlcNAc
# How it was run: as §1
# [28] = target: Fuc(a1-2)[GalNAc(b1-3)]Gal
# How it was run: as §1
# [29] = target: Fuc(a1-3)GlcNAc
# How it was run: as §1
# [30] = target: Fuc(a1-3)[Gal(b1-4)]Glc6S
# How it was run: as §1
# [31] = target: Fuc(a1-3)[Gal(b1-4)]GlcNAc
# How it was run: as §1
# [32] = target: Fuc(a1-3)[Gal(b1-4)]GlcNAc(b1-2)Man(a1-3)[Fuc(a1-3)[Gal(b1-4)]GlcNAc(b1-2)Man(a1-6)]Man(b1-4)GlcNAc(b1-4)GlcNAc
# How it was run: as §1
# [33] = target: Fuc(a1-3)[Gal(b1-4)]GlcNAc(b1-2)Man(a1-3)[Fuc(a1-3)[Gal(b1-4)]GlcNAc(b1-2)Man(a1-6)]Man(b1-4)GlcNAc(b1-4)[Fuc(a1-6)]GlcNAc
# How it was run: as §1
# [34] = target: Fuc(a1-3)[Gal(b1-4)]GlcNAc(b1-2)Man(a1-6)[Gal(b1-4)GlcNAc(b1-2)Man(a1-3)]Man(b1-4)GlcNAc(b1-4)GlcNAc
# How it was run: as §1
# [35] = target: Fuc(a1-3)[Gal(b1-4)]GlcNAc(b1-3)Gal(b1-3)[Fuc(a1-4)]GlcNAc
# How it was run: as §1
# [36] = target: Fuc(a1-3)[Gal(b1-4)]GlcNAc(b1-3)GalNAc
# How it was run: as §1
# [37] = target: Fuc(a1-3)[Gal(b1-4)]GlcNAc(b1-4)Gal(b1-4)[Fuc(a1-3)]GlcNAc
# How it was run: as §1
# [38] = target: Fuc(a1-3)[Gal(b1-4)]GlcNAc(b1-4)Gal(b1-4)[Fuc(a1-3)]GlcNAc(b1-4)Gal(b1-4)[Fuc(a1-3)]GlcNAc
# How it was run: as §1
binder,measurement,setting,value
B1,glycan array binding signal (z-score),[1],-0.145
same,glycan array binding signal (z-score),[2],-0.148
same,glycan array binding signal (z-score),[3],-0.184
same,glycan array binding signal (z-score),[4],-0.188
same,glycan array binding signal (z-score),[5],-0.168
same,glycan array binding signal (z-score),[6],-0.164
same,glycan array binding signal (z-score),[7],-0.191
same,glycan array binding signal (z-score),[8],-0.178
same,glycan array binding signal (z-score),[9],-0.187
same,glycan array binding signal (z-score),[10],-0.124
same,glycan array binding signal (z-score),[11],-0.127
same,glycan array binding signal (z-score),[12],-0.183
same,glycan array binding signal (z-score),[13],-0.057
same,glycan array binding signal (z-score),[14],-0.156
same,glycan array binding signal (z-score),[15],-0.189
same,glycan array binding signal (z-score),[16],-0.162
same,glycan array binding signal (z-score),[17],-0.189
same,glycan array binding signal (z-score),[18],-0.179
same,glycan array binding signal (z-score),[19],-0.174
same,glycan array binding signal (z-score),[20],-0.176
same,glycan array binding signal (z-score),[21],-0.18
same,glycan array binding signal (z-score),[22],-0.185
same,glycan array binding signal (z-score),[23],-0.183
same,glycan array binding signal (z-score),[24],-0.189
same,glycan array binding signal (z-score),[25],-0.13
same,glycan array binding signal (z-score),[26],-0.179
same,glycan array binding signal (z-score),[27],-0.131
same,glycan array binding signal (z-score),[28],-0.153
same,glycan array binding signal (z-score),[29],-0.135
same,glycan array binding signal (z-score),[30],-0.159
same,glycan array binding signal (z-score),[31],-0.101
same,glycan array binding signal (z-score),[32],-0.158
same,glycan array binding signal (z-score),[33],-0.116
same,glycan array binding signal (z-score),[34],-0.152
same,glycan array binding signal (z-score),[35],-0.144
same,glycan array binding signal (z-score),[36],-0.184
same,glycan array binding signal (z-score),[37],-0.155
same,glycan array binding signal (z-score),[38],-0.176
